# Experimental data from publication PMC4336329 (PLoS ONE, 2015).
# In all, about 310,000 compounds went through this assay and about 14,000 (4.5%) showed an effect of 50% or more. The effect is printed as a negative number. The list shows a part of the results.
# Target: human ether-à-go-go-related gene (hERG) potassium channel (human, UniProt Q12809)
# Experiment: primary screen, population patch clamp on CHO cells stably expressing hERG
# 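Further: peak tail current of the secondary pulse compared with the same well before compound.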
# Sequence of human ether-à-go-go-related gene (hERG) potassium channel (Q12809 whole entry, looked up): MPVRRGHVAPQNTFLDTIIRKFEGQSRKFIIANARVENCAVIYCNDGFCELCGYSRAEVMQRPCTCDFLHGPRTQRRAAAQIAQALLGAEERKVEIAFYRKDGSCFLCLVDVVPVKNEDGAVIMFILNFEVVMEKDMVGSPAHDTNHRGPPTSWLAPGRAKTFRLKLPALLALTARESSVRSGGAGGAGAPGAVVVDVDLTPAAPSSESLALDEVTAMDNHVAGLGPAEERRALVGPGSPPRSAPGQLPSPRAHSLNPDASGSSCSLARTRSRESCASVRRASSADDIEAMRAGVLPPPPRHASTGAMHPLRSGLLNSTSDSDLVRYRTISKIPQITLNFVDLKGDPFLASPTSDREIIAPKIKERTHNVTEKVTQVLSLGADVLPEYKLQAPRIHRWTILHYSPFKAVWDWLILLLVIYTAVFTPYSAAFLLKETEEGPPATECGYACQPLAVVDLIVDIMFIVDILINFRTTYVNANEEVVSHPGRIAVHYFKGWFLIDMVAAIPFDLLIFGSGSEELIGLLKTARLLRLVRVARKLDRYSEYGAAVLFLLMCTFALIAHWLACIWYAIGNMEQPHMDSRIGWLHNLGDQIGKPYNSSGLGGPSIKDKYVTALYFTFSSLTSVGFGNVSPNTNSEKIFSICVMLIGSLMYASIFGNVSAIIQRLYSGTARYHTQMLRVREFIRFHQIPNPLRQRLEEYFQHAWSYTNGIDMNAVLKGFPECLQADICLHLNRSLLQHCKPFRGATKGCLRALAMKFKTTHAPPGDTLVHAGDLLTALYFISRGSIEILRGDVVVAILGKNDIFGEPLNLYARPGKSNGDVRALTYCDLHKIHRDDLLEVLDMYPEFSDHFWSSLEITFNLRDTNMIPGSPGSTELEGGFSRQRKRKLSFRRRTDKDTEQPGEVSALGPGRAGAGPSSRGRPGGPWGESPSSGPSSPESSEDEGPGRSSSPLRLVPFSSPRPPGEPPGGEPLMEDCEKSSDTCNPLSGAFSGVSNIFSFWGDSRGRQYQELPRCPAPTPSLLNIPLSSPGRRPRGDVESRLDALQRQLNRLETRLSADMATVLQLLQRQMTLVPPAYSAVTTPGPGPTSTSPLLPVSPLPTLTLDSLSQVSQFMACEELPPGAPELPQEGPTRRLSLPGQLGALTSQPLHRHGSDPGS
row,Compound,"hERG current change (%, negative = inhibition) at 10uM"
1,O=Nc1c(O)n(Cc2ccc(Cl)c(Cl)c2)c2ccccc12,-5.57%
2,O=C(C1CCCCC1)N1CCc2[nH]c3ccc(F)cc3c2C1,-3.94%
3,Nc1nc(NCCCN2CCOCC2)nc(Nc2ccccc2F)c1[N+](=O)[O-],-18.8%
4,Cc1cccc(NC(=O)c2ccccc2OCC(=O)c2ccccc2)c1,12.1%
5,COc1ccccc1NC(=O)C1C2C=CC(C2)C1C(=O)NCc1cccnc1 (stereo not drawn),-10.7%
6,CSCC[C@H](NC(=O)[C@@H]1Cc2ccccc2CN1)C(=O)NC(C)c1ccccc1 (stereo partly drawn),5.77%
7,CCOc1ccc(S(=O)(=O)N2CCOCC2)cc1NC(=O)C1CCC1,16.3%
8,O=C(CN(CC1CCCO1)C(=O)CNS(=O)(=O)c1ccc(F)cc1)NCc1ccccc1 (stereo not drawn),7.27%
9,CN(CC(=O)Nc1ccc(OC(F)(F)F)cc1)C(=O)Cc1ccc2c(c1)CCC2,17.7%
10,Cc1ccc(C(=O)Nc2ccc(S(=O)(=O)NCc3ccco3)cc2)cc1,-5.85%
11,Cc1cccc(NC(=O)CNC(=O)c2cccc(-n3cccc3)c2)c1C,-7.5%
12,Cc1ccc(NC(=O)Cn2cccc2)cc1Cl,-13.9%
13,CCC(C)[C@H](NC(=O)N1CC(=O)Nc2ccccc21)C(=O)N[C@@H](Cc1c[nH]c2ccccc12)C(=O)O (stereo partly drawn),3.4%
14,CC(C)C(C)N(Cc1ccc(C(=O)O)cc1)C(=O)c1ccc2ccccc2n1 (stereo not drawn),0.513%
15,CCOC(=O)CCc1c(C)c2ccc(OCc3cc([N+](=O)[O-])ccc3OC)c(C)c2oc1=O,-0.512%
16,Cc1cc2ccccc2cc1CN1CCOCC1,-2.48%
17,CS(=O)(=O)c1ccc2nc(NC(=O)C3C4C=CC(C4)C3C(=O)O)sc2c1 (stereo not drawn),10.7%
18,OCc1cn(-c2ccccc2)nc1-c1cccnc1,5.13%
19,CCN1CCN(C(=O)N(Cc2ccc(Cl)cc2)S(=O)(=O)c2ccc(C)cc2)CC1,-20.6%
20,CC1(C)CC(CC(=O)O)CC(C)(C)N1.Cl,3.16%
21,COc1ccccc1N1CCN(c2nccc(C)n2)CC1,-2.72%
22,O=C(Nc1cccnc1)c1ccc(Cl)c(S(=O)(=O)N2CCc3ccccc32)c1,-42.7%
23,CCn1c2ccccc2c2cc(NC(=O)c3ccc(Br)o3)ccc21,12.2%
24,Cc1ccc(CNC(=O)CN(C)S(=O)(=O)c2ccc(F)cc2)cc1,2%
25,Cc1ccc(C)c(S(=O)(=O)N2CCCOC2CNC(=O)C(=O)NC2CC2)c1 (stereo not drawn),20.8%
26,Cc1[nH]c2c(C)cccc2c1CCNC(=O)c1ccc2c(c1[N+](=O)[O-])C(=O)c1ccccc1C2=O,16.2%
27,C[N+](C)(C)CC=O.[Cl-],13.7%

row,Compound,"hERG current change (%, negative = inhibition) at 10uM"
1,CCn1c(=O)c(C(=O)CN2c3ccccc3CC2C)c(N)n(Cc2ccccc2)c1=O (stereo not drawn),3.42%
2,O=C(COc1ccccc1)N(Cc1cc2ccccc2[nH]c1=O)CC1CCCO1 (stereo not drawn),-1.24%
3,Cc1cc(C)c(S(=O)(=O)N(C)CC(=O)NCc2ccccn2)c(C)c1,-18.4%
4,CCOC(=O)c1ccccc1NC1c2ccccc2C(=O)N1c1cc(C)ccn1 (stereo not drawn),-3.98%
5,COCc1ccccc1C1=CC(=O)C[C@H](c2ccc(F)cc2)C1,-47.7%
6,CC(=O)c1ccccc1OCC(O)CN1CCN(CCN2C(=O)c3cccc4cccc(c34)C2=O)CC1 (stereo not drawn),-73.3%
7,O=C1CCCC(O)=C1N=Nc1cccc(S(=O)(=O)N2CCOCC2)c1,-1.24%
8,Cc1c(C(=O)OC(C)C)[nH]c2c1C(=O)CCC2,3.92%
9,CC1(C)CN=c2s/c(=C\c3ccc(Cl)cc3)c(=O)n2C1,-10.6%
10,COc1ccc(NS(=O)(=O)c2cccc(C(=O)NCC(c3ccco3)N(C)C)c2)cc1 (stereo not drawn),-28.5%
11,CCCC(=O)Nc1ccccc1NC(=O)c1ccc(OCC)cc1,-3.12%
12,Cc1ccc(NC(=S)N2CCC(c3nc4ccccc4s3)CC2)cc1C,8.85%
13,COc1ccc(C2Nc3ccccc3C(=O)N2NC(=O)c2ccccc2)cc1OC (stereo not drawn),3.24%
14,COc1cc2c(cc1NC(=O)CN(C)Cc1nc3ccccc3c(=O)[nH]1)oc1ccccc12,8.42%
15,COc1ccc2c(c1OC)C(=O)N(c1cccc(C)c1)C2=O,1.15%
16,O=C(NNS(=O)(=O)c1ccc(F)cc1)C1CC(c2cccnc2)=NO1 (stereo not drawn),9.52%
17,COc1ccc(-n2c(=S)[nH]c3cc(C(=O)NCc4cccnc4)ccc3c2=O)cc1,19.9%
18,CCOc1ccc(NC(=O)CN(C)C(=O)c2ccncc2)cc1OCC,-5.45%
19,COc1ccccc1NC(=O)CN1CCC(C(=O)c2ccc(F)cc2)CC1,-38.5%
20,Cc1cccc(NC(=O)NNC(=O)c2cc3occc3[nH]2)c1C,19.3%
21,COc1ccc(CCNC(=O)CSc2nnc3ccc(-c4ccccn4)nn23)cc1OC,2.17%
22,O=S(=O)(Nc1cccc2ccccc12)c1cccs1,14.9%
23,CC(=O)/C=C(\C)N=Nc1c(O)[nH]c2ccccc12,5.48%
24,Cc1ncn(C23CC4CC(CC(C4)C2)C3)n1,17.1%
25,C#CCOCCOCCOCCNc1nc(N2CCN(C(=O)CCCCCCCCCCNC(=O)Cn3cc(C[C@@H](C)O)nn3)CC2)nc(N2CCN(C(=O)CCCCCCCCCCNC(=O)[C@H](CCCN=C(N)N)n3cc(C[C@@H](C)CC)nn3)CC2)n1,3.82%
26,CC(C)c1ccc(NC(=S)N2CCN(C)CC2)cc1,-0.899%
27,CC(O)(CS(=O)(=O)Cc1ccccc1)c1ccccc1 (stereo not drawn),15.2%
